Experimental findings from PubChem BioAssay AID1508624 (National Center for Advancing Translational Sciences (NCATS), 2021) are described below.

The assay can be described thus: Primary qHTS for Identification of Small Molecule Activators of Huntingtin-Antisense Promoter Activity. Further: nearly all actives have a fitted effect of over 55% in size. Conditions: HEK293 HTT-AS promoter firefly luciferase reporter, 24 h; at 57.5 µM (top of the series) unless noted. From the text:
Assay Provider: Russell L. Margolis M.D.
Department Neurology, Johns Hopkins University School of Medicine, Baltimore, MD
Huntington's Disease (HD) is a neurodegenerative disorder caused by a CAG repeat expansion in exon 1 of huntingtin (HTT). While there are currently no disease-modifying treatments for HD, recent efforts have focused on development of nucleotide-based therapeutics to lower HTT expression. As an alternative to siRNA or oligonucleotide methods, we hypothesized that suppression of HTT expression might be accomplished by small molecules that either (1) directly decrease HTT expression by suppressing HTT promoter activity or (2) indirectly decrease HTT expression by increasing the promoter activity of HTT-AS, the gene antisense to HTT that appears to inhibit expression of HTT.
We developed and employed a high throughput screen for modifiers of HTT and HTT-AS promoter activity using luminescent reporter HEK293 cells; of the 52,041 compounds tested, we identified 898 replicable hits. We used a rigorous stepwise approach to assess compound toxicity and the capacity of the compounds to specifically lower huntingtin protein in 5 different cell lines, including HEK293 cells, HD lymphoblastoid cells, mouse primary neurons, HD iPSCs differentiated into cortical-like neurons, and HD hESCs. We found no compounds which were able to lower huntingtin without lowering cell viability in all assays, though the potential efficacy of a few compounds at non-toxic doses could not be excluded.
SEQUENCE No. (1, 2, 3, etc.); […] (e.g., Cells, Incubation, Reagent, etc.); VALUE and DESCRIPTION.
1; Reagent; 4 uL; 2,500 Hek293 luciferase reporter cells per wells
3; Compound; 23 nL; Control inhibitor / compound library
5; Reagent; 2.5 uL; Firefly Luc reagent; Dual-Glo Luciferase Reporter Assay System (Promega)
6; Time; 10 min; room temperature incubation
7; Detection; Luminescence; FLuc
NOTES (numbers refer to sequence above)
1; High-throughput screening, measuring luminescence from a Hek293 luciferase reporter, was performed in 1,536 well white-walled tissue-culture treated plates. 2,500 cells were plated in 4 µL of Opti-MEM per well using a Multidrop Combi Reagent Dispenser (ThermoFisher).
2; Assay plates were cultured for 24 hours.
3; Control inhibitor (PTC124; final concentration of 50 uM) and compound library (at final concentrations of 460 nM - 57.5 uM) were added to the assay plate using the Kalypsis Pintool Robotic System equipped with 1536 pinheads.
4; Cells were then incubated for 24 hours at 37 degrees C prior to luminescence measurements.
5; In all cases, luminescence was measured using the Dual-Glo Luciferase Reporter Assay System (Promega) following the manufacturer's instructions.
6; Room temperature incubation.
7; Luminescence signal was obtained using the PerkinElmer ViewLux plate reader. Results were normalized to vehicle control (0% activity) and zero RLU (-100% activity).
A general note: qHTS replaces the single test concentration by a dilution series.

Among all 48,000 compounds or so, about 120 (0.25%) were called active. About 4% were inconclusive and are not listed. The call rests on the fitted dose curve; in most records, active means well fitted activation curve with a large enough effect; inconclusive means small, poorly fitted or top-dose-only effect, or another doubt; inactive means no such curve, though single readings can be large or run the other way. This is one part of the list.

As to `Cc1ccc2nc(NC(=O)c3cccn(Cc4ccccc4F)c3=O)sc2c1`, the activity change, positive = activation was inactive: 3.89%.

With `CC[N+](CC)(CC)CC`, the activity change, positive = activation was inactive: -3.3%. For `CCN(CC)C(=O)c1ccc(NC(=O)COc2ccc(-c3nn(C)c(=O)c4ccccc34)cc2)cc1`, the activity change, positive = activation is inactive: -40.7%. As for `CCOCCOC(C)=O`, the activity change, positive = activation is inactive: -9.53% [at 116 µM, percent change from vehicle, -100% = no light]. Consider `COc1cc2[nH]c(=O)n(-c3ccc(C)cc3)c(=O)c2cc1OC`, for which the activity change, positive = activation is inactive: 0.849%. `CCC(COC(=O)c1cc(OC)c(OC)c(OC)c1)(c1ccccc1)N(C)C` (centres undefined): the activity change, positive = activation is inactive: -7.19%.

Turning to `O=C(Nc1ccc(Br)cc1C(=O)c1ccccc1Cl)c1ccc(Br)cc1`, the activity change, positive = activation is inactive: 7.93% [at 11.5 µM, percent change from vehicle, -100% = no light]. In the case of `CCN(C(C)=O)c1cccc(-c2ccnc3c(C#N)cnn23)c1`, the activity change, positive = activation is inactive: -7.98%. Turning to `Cc1ccccc1-c1nc(CN2C(=O)CN=C(c3ccccc3)c3ccccc32)c(C)o1`, the activity change, positive = activation is inactive: -26.1%. In the case of `O=[N+]([O-])c1ccc([As](=O)(O)O)cc1`, the activity change, positive = activation was inactive: -0.897%. `CN(C)NC(=O)CCC(=O)O`: the activity change, positive = activation is inactive: -18.2%.

Consider `CCc1ccc(-n2nc(C)c3c2NC(=O)CSC3c2ccc(C(=O)OC)cc2)cc1` (centres undefined), for which the activity change, positive = activation is inactive: -37.3%. Take `COc1ccccc1-c1nn2c(=O)cc(CN3CCN(C(=O)COc4ccccc4Cl)CC3)nc2s1`: the activity change, positive = activation was inactive: -11.8% [at 57.5 µM, percent change from vehicle, -100% = no light]. As to `COc1cc(C[C@@H](C)N)c(OC)cc1Br`, the activity change, positive = activation is inactive: -13.9% [at 116 µM].

With `CC(C)Oc1cccc(NC(=O)c2ccccc2C(F)(F)F)c1`, the activity change, positive = activation was inactive: -13.3% [at 116 µM, percent change from vehicle, -100% = no light].

`CCC12CN3CC(CC)(CN(C1)C3c1c(C)[nH]c(=O)[nH]c1=O)C2=O` (centres undefined): the activity change, positive = activation was inactive: 6.01%. As for `COc1cc(OC)cc(C(=O)Nc2ccc(Cl)cc2C(=O)c2ccccc2Cl)c1`, the activity change, positive = activation is inactive: 20.6%.

With `C1CCC(NC2CCCCC2)CC1`, the activity change, positive = activation was inactive: -6.97%. In the case of `CCC1(c2cccc(O)c2)CCCCN(C)C1` (centres undefined), the activity change, positive = activation is inactive: -12.3%.

On to `C[C@@H]1CC[C@H]2[C@@H](C)C(=O)O[C@@H]3O[C@@]4(C)CC[C@@H]1[C@]32OO4`, for which the activity change, positive = activation is inactive: -20.7%. In the case of `CCN(CC)C(=O)[C@@H]1C=C2c3cccc4[nH]cc(c34)C[C@H]2N(C)C1`, the activity change, positive = activation is inactive: -20.9% [at 222 µM]. Take `O=c1c2ccccc2nc(/C=C/c2cccc3ccccc23)n1-c1ccc(Cl)cc1`: the activity change, positive = activation was inactive: -17.6% [at 57.5 µM, percent change from vehicle, -100% = no light]. As for `CC(=O)OCC1=C(C(=O)O)N2C(=O)[C@@H](N)[C@@H]2SC1`, the activity change, positive = activation is inactive: -4.35%. `C#C[C@]1(O)C=C[C@H]2[C@@H]3CCC4=CC(=O)CC[C@@H]4[C@H]3CC[C@@]21CC`: the activity change, positive = activation was inactive: -21.6%. In the case of `Cc1cc(C)cc(NC(=O)CN2C(=O)CN=C(c3ccccc3)c3cc(Cl)ccc32)c1`, the activity change, positive = activation was inactive: -29.1%. On to `COc1ccc2c(c1)CN(C)CC2c1ccc(Cl)c(Cl)c1` (centres undefined), for which the activity change, positive = activation was inactive: -15.1%. Turning to `Sc1ccccc1Cl`, the activity change, positive = activation is inactive: -10.3%. As for `O=C(COc1ccc(Br)cc1)Nc1ccc(Cl)cc1C(=O)c1ccccc1`, the activity change, positive = activation was inactive: -6.35% [at 57.5 µM, percent change from vehicle, -100% = no light]. Consider `CC(C)(C)NCC(O)c1ccccc1Cl` (centres undefined), for which the activity change, positive = activation was inactive: -8.92%.

In the case of `Oc1ccc([C@H]2CNCc3c2ccc(O)c3O)cc1O`, the activity change, positive = activation was inactive: -8.42%. Take `C1=C2CCCN[C@H]2[C@@H]2C[C@H]1[C@@H]1CCCCN1C2`: the activity change, positive = activation is inactive: -6.03%.

Regarding `CC(C)C[C@H](CN)CC(=O)O`, the activity change, positive = activation was inactive: -2.11%.

Take `CN(C)C(=S)SSC(=S)N(C)C`: the activity change, positive = activation is inactive: -43.5%. With `Cc1ccc(OCC(=O)N2CCN(Cc3ccc(F)cc3)CC2)cc1`, the activity change, positive = activation was inactive: -20% [at 57.5 µM, percent change from vehicle, -100% = no light].

Turning to `Cc1ccc(C(C)(C)C)c(OCC(=O)Nc2ccc(Cl)cc2C(=O)c2ccccc2)c1`, the activity change, positive = activation was inactive: -1.99%. As to `COc1ccc2c(c1)[C@]13CCCCC1C(C2)N(C)CC3` (some centres undefined), the activity change, positive = activation was inactive: -13.2%. Take `COc1cccc(-n2c(/C=C\c3ccc(Cl)cc3)nc3ccccc3c2=O)c1`: the activity change, positive = activation is inactive: -14.1%.

Take `c1cnc2c(c1)ncn2C1CCNCC1`: the activity change, positive = activation is inactive: 2.03%. The value for `O=[N+]([O-])/N=C1\NCCN1Cc1ccc(Cl)nc1` was inactive: -11.2%.
